Measurements as given in PubChem BioAssay AID2060627 (Molecular Pharmacology Branch, DTP, NCI, 2025).
The source holds more than one record for some entries. Only these are listed. There may be further records. Values that stand side by side are repeated measurements in other runs, samples, wells, individuals or studies.

System: 156681-154-R-J1-PDC complex spheroid viability
Assay: Anticancer human tumor 156681-154-R-J1-PDC patient-derived melanoma cell line growth inhibition [CLK]
Excerpt: A high-throughput screen of multi-cell type tumor spheroids was designed to identify active combinations of […] and targeted small molecules. Complex spheroids include a stromal component modeled by human endothelial cells (HUVEC) and fibroblasts modeled by human mesenchymal stem cells (MSCs). The concentration ranges selected for each drug and investigational agent were based upon clinically achievable concentrations if the clinical Cmax of the agent was known.
Compounds. The drugs and investigational agents: cirtuvivint (SM08502; NSC835563), CC-671 (NSC850746), vemurafenib (NSC761431), tapotoclax (NSC804041), sotorasib (NSC818433), adagrasib (NSC831453), MRTX-1133 (NSC836407), BAY2416964 (NSC825713), copanlisib (NSC816437), inavolisib (NSC800729), abemaciclib (NSC768073), osimertinib (NSC779217), entinostat (NSC756642), eltanexor (KPT-8602, NSC794443), venetoclax (NSC766270), ceralasertib (NSC777638), bortezomib (NSC756655), olaparib (NSC753686), talazoparib (NSC767125), alisertib (NSC759677), peposertib (NSC802822), gemcitabine (NSC613327), 5-fluorouracil (NSC19893), SN-38 (NSC673596), oxaliplatin (NSC266046), paclitaxel (NSC125973), and doxorubicin (NSC123127), were obtained from the National Cancer Institute (NCI) Developmental Therapeutics Program Chemical Repository. […] If the clinical Cmax for an agent had not been determined, the highest concentration tested was 10 microM. […]
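Also: spheroids exposed to the agents for seven days.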
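For viability, T/C in this document: 100% = DMSO vehicle control viability.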

With `CNC(=O)c1ccc(Nc2nc(OC3CCCC3)c3c(-c4ccc5nc(C)oc5c4)c[nH]c3n2)c(OC)c1` the viability, T/C (compound alone 10 µM, stronger effect = lower value) was 46.5, 52.5, 50.1, 60.7, 46, 55.9, 33.9, 45.3, 51.5, 49.6, 50.7, 49% and the IC50 (drug combinations, compound alone, run of 08/15/2023) was > 10 µM, 313 nM, 239 nM, 234 nM, 903 nM, 546 nM, 148 nM, 463 nM, 241 nM, 282 nM, 199 nM, 287 nM.
